# Assay results from the supplement of paper PMC3334620.
# The full ranking holds about 33,000 sequences; the median of “E-score (-0.5 to 0.5)” is about -0.053, and the highest 2% start at about 0.37. Some of the results follow.
# Biological target: Hap1 (UniProt P0CE41)
# Assay: PBM E-score (8-mer binding enrichment) (E-score (-0.5 to 0.5)); higher = stronger / more preferred TF binding; most listed sequences are background and not binding sites
# Conditions: protein concentration: 200 nM; construct: GST-DNA-binding domain
# In short: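 GST-tagged yeast TFs (full-length or DNA-binding domain) were made by PURExpress in vitro transcription/translation and applied at about 100-200 nM to universal all-10-mer Agilent arrays. The arrays were made double-stranded by primer extension, on fresh or once-stripped slides. Bound protein was detected with fluorescent anti-GST, and scans were normalised with masliner. Each ungapped eight-base word, pooled with its reverse complement, received an E-score (modified Wilcoxon-Mann-Whitney statistic) from the Universal PBM Analysis Suite.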
# Chain of UniProt P0CE41 (P0CE41 whole entry): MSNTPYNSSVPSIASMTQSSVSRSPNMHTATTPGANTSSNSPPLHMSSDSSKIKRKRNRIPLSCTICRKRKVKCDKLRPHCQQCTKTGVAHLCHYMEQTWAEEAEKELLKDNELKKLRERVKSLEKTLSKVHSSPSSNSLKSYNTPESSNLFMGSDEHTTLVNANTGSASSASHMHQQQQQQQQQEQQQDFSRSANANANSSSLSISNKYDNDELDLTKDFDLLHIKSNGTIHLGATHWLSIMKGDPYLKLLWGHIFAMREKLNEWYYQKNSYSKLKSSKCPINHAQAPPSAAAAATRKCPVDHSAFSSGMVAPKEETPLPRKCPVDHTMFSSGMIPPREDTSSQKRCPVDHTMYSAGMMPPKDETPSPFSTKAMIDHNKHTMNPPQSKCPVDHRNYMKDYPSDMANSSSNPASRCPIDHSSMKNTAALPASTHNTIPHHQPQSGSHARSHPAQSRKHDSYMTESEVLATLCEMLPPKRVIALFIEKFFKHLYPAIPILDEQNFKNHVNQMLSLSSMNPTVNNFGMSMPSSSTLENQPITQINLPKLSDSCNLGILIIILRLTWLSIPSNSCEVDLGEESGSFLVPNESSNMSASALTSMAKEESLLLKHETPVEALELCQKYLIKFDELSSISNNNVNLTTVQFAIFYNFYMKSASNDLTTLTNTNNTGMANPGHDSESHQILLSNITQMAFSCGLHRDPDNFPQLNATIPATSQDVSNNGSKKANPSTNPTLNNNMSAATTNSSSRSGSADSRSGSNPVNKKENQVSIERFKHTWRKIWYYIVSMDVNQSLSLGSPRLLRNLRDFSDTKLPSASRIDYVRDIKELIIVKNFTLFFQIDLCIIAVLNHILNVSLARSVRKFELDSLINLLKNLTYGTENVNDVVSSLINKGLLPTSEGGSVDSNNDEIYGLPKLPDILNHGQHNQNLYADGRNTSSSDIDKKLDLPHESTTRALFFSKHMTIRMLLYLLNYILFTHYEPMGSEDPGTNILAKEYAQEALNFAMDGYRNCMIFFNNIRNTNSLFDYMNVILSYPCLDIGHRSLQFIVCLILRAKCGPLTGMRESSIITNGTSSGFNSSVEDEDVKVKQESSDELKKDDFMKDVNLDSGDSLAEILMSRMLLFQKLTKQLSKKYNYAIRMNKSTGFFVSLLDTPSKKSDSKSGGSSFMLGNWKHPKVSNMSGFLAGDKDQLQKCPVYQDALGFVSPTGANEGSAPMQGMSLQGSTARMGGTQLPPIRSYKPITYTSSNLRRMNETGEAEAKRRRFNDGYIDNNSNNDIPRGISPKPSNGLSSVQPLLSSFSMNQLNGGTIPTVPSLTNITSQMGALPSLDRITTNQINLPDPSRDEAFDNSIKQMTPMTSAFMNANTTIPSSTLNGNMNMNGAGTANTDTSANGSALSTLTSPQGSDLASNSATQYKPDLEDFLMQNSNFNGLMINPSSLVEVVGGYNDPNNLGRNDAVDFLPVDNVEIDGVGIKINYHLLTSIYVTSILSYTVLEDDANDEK
row,Sequence,PBM E-score
1,CGGTCCGC,0.317
2,ACCACAAG,-0.0645
3,ATGTCGAG,-0.205
4,GGTCGAGA,-0.039
5,CCCAAAAA,-0.156
6,TAATCGTA,-0.0705
7,TCCTGAGA,-0.126
8,AGAGGATC,-0.163
9,AAGTAATA,-0.0959
10,CCAAGAAC,-0.149
11,AGTTCAAT,-0.203
12,CCGCCTAC,0.0932
13,ACCTAATG,-0.268
14,GTCCACAA,-0.0973
15,GCACACAC,-0.13
16,TCAACGAA,-0.102
17,ATGGCCAG,-0.165
18,AGCGAAAA,-0.0603
19,GTATGCCA,-0.0352
20,CTTGTTTA,0.0183
21,ACTTTCCC,0.0756
22,AACGCGGT,0.171
23,CAATCTTA,-0.113
24,ACCAGCGG,0.117
25,ACCTTGCA,-0.202

row,Sequence,PBM E-score
1,CCGTGATC,0.132
2,AGGTAACT,-0.0616
3,CCTCAAGA,-0.125
4,AAAGAGAA,-0.0755
5,ACCAACAA,0.018
6,CCCTTTCC,-0.0185
7,ACCTACTC,-0.0798
8,AGCCGGCC,0.354
9,AAGTCAGA,-0.116
10,CACGGTCA,-0.0339
11,AAGCTTGA,-0.0988
12,GCCCAAAC,-0.0175
13,AGTATGTC,-0.204
14,GAAATATC,0.274
15,TTGAAAAA,-0.215
16,AAAGTCTT,-0.103
17,ACTCTACT,-0.225
18,ACGACGAA,-0.00114
19,AGAGAAGA,-0.129
20,CCCCCAGA,-0.277
21,CACCCAAC,0.0332
22,ATTGCGTC,0.173
23,AACTTATG,-0.161
24,CGTAATTC,0.177
25,ATAAGCTA,-0.17

row,Sequence,PBM E-score
1,CGCCAGTC,-0.0945
2,ACTTGCAG,-0.214
3,CTTAACCC,0.217
4,ATATCGGA,0.439
5,CAGCCTGG,-0.194
6,TACCCGTA,-0.00463
7,CTCCTACC,-0.126
8,AGACTGTG,-0.326
9,ATATCCGC,0.387
10,AGTTGTTC,-0.108
11,CAAAAAGG,-0.282
12,CTAATGTC,0.0163
13,GTACGGAA,0.28
14,AAATGGAC,0.123
15,AGCAGTTC,-0.148
16,TCAGGTAA,-0.189
17,CGTTATAA,0.188
18,TACGGGGA,0.273
19,ATCAGCCA,-0.0937
20,AGGCCATC,-0.137
21,AAAAGGGT,-0.0482
22,TCGGATAA,0.374
23,TCTTATAA,0.0456
24,ATCGCCGA,0.445
25,AGTCCCCA,-0.319

row,Sequence,PBM E-score
1,CGCGTAAC,0.079
2,TCACTCCA,-0.111
3,CAGCGCTC,-0.0822
4,ATTAAAGC,0.0221
5,CGGTCAGA,0.289
6,CTTCGCGA,0.144
7,CGTTATCC,0.28
8,CAACTCTG,-0.136
9,AACAGACC,-0.0959
10,CTCGGATC,0.383
11,CCTGACCG,0.181
12,AAAGATTT,0.00922
13,CATTCGCC,0.106
14,CCGGTGCC,0.308
15,ACCTAGCC,0.105
16,AGGCTGTG,-0.019
17,ATGCCATC,-0.0678
18,AACCCGGA,0.371
19,ACGCGGTA,0.184
20,GTTCAGTA,-0.211
21,GCATATAC,-0.00768
22,GTATAGCA,-0.0474
23,CCTTCCAA,-0.209
24,CATAGGCG,-0.196
25,TACACCTA,-0.205

row,Sequence,PBM E-score
1,GGGCAAAA,0.22
2,GCTAGAGC,-0.0726
3,GCAGGGAC,-0.274
4,GAACGCTA,-0.166
5,ACGGGCAT,0.127
6,CTCCATTC,-0.15
7,CACAGTAC,-0.224
8,AAATCATT,-0.136
9,CTACGGTC,0.0364
10,CCCTTTTC,-0.0629
11,CTCGGGGC,0.335
12,AGAATCCC,0.0916
13,CACAACAC,-0.156
14,CAGTCCGG,0.364
15,ATTGCTCC,0.264
16,CAGTGTGC,-0.139
17,ATAAGATA,0.16
18,AGGATGGC,0.0408
19,CAGAGTGA,-0.117
20,ACACTCCG,0.2
21,AACTCGAT,0.0465
22,AAGACCAC,-0.297
23,CTCATTGA,-0.115
24,GTAGCCAA,-0.152
25,CCAGAGAG,-0.208

row,Sequence,PBM E-score
1,CGCTGGCC,-0.0106
2,CGACAGTC,-0.159
3,AGTATAAG,-0.0688
4,CGAGAGTA,0.127
5,AGCAGCTG,-0.167
6,AAACCGTT,0.0886
7,GTAGGCGA,-0.174
8,AATTCGAT,0.151
9,ACGTGGGA,-0.28
10,GTACTCAA,-0.108
11,AGGCTATC,-0.0678
12,AGAGGTTA,-0.0359
13,AATCACCG,0.34
14,AATAGGAA,-0.0637
15,CCGCTATA,0.27
16,TGCCGAAA,0.303
17,CGATGCCC,0.023
18,ATTGGAGA,6e-05
19,AATTGGAA,-0.0476
20,CGGTGCGA,0.14
21,ACAACTCA,-0.196
22,CCAGACGG,-0.0104
23,TCACATGA,-0.276
24,GAATACGA,0.0822
25,GGGGACAA,0.107

row,Sequence,PBM E-score
1,AACTACTG,-0.0821
2,CACGAGTA,-0.181
3,ATGGATAG,-0.0479
4,AGTTGCGC,0.0784
5,ATAGACAA,-0.101
6,CCCCTGCC,-0.235
7,AACAGGGT,-0.0582
8,GATGAGGA,-0.0967
9,GGATTGAA,0.125
10,AGGCGTTC,-0.0584
11,ATTCGAGC,-0.0132
12,TATAGACA,-0.189
13,GTATGAAA,-0.0897
14,GGGGGTAA,0.0492
15,AAGTTAGT,-0.0152
16,ACAGGGTA,-0.125
17,AAGTAACG,0.0942
18,GGGGGGGA,-0.158
19,TAGGTACA,-0.318
20,CAACATCA,-0.144
21,CCTGCGGA,0.209
22,CGCTGCCA,0.0394
